The list shows a part of the results. The data describe in vitro nicking of single-stranded DNA by Rep domains (3 µM enzyme, 1 h, 37 °C); shown is the middle of each 90-letter strand. Uncut reads are compared with the no-enzyme pool on a log2 scale; strong cutting gives strongly negative numbers. There is no active / inactive call. Reads are scaled to the total, so uncut sequences can rise above 0 when many others are cut.
system: T1, Rep nickase domain of tomato golden mosaic virus; assay: uncleaved DNA left, log2 of reads against the no-enzyme library (log2 ratio); higher = less cleavage (more negative = more Rep cleavage of the k-mer); sequences stand for … in CTCGTCCG…ACCGGAGA
T1 sequence (residues 1-124 of Rep, tag left off): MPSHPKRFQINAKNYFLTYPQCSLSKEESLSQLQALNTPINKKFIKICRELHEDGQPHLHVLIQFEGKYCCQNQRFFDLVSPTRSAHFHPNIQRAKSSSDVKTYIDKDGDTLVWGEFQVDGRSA
Description: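 A pool of 90-nt single-stranded DNAs with seven random bases just before the constant AC of the nick site (name = the seven bases) was cut by 3 µM recombinant His6-SUMO-tagged Rep nickase domain (300 nM DNA, 50 mM HEPES pH 8.0, 50 mM NaCl, 1 mM MnCl2, 1 h, 37 °C, three replicates). Uncut DNA was amplified and sequenced.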

Row | Sequence | uncleaved DNA left (log2)
1 | GTTCACT | 0.019
2 | GACCCCG | -0.125
3 | CCTTTCA | -0.0386
4 | GTTCGTT | -0.0755
5 | TAGCACG | -0.0649
6 | GCTAGAC | 0.107
7 | GTTATTC | 0.0308
8 | ACCTGTG | -0.0426
9 | AAGCCAA | -0.0158
10 | CGAGCAT | 0.118
11 | AACTGAC | -0.00121
12 | GGTGGCA | 0.114
13 | CAAGTAA | 0.0958
14 | AGACTTC | -0.157
15 | ATATACT | -1.08
16 | GGGAACG | 0.0343
17 | CAACCAT | -0.18
18 | GAAACGT | 0.0781
19 | GCGACTT | 0.0597
20 | TTCACAG | -0.156

Row | Sequence | uncleaved DNA left (log2)
21 | GATACGA | 0.0799
22 | TCGAGGG | 0.0875
23 | GCGAAGG | 0.16
24 | GTGGCAG | 0.0906
25 | GGTTATT | -0.16
26 | AACTTCC | -0.128
27 | CCAATTG | -0.00865
28 | AATGATA | -0.0725
29 | AGCGAAT | 0.218
30 | CTGGTAG | -0.0311
31 | GACCTCC | -0.122
32 | AATAACG | 0.128
33 | CTAAAAC | 0.0959
34 | GCTTCTA | 0.0786
35 | TCTAAGC | -0.0171
36 | TTCCTAT | 0.222
37 | CCGGACA | -0.0313
38 | CTCGAGC | 0.00377
39 | TACCGTT | -0.26
40 | CGGTGGT | -0.0495

— the supplement of paper PMC7826260
